The results in this text go back to PMC8913617.

Protein sequences, listed by entry. Tags and fused reporters are not part of them. Residues count along the entry.
UniProt P11881: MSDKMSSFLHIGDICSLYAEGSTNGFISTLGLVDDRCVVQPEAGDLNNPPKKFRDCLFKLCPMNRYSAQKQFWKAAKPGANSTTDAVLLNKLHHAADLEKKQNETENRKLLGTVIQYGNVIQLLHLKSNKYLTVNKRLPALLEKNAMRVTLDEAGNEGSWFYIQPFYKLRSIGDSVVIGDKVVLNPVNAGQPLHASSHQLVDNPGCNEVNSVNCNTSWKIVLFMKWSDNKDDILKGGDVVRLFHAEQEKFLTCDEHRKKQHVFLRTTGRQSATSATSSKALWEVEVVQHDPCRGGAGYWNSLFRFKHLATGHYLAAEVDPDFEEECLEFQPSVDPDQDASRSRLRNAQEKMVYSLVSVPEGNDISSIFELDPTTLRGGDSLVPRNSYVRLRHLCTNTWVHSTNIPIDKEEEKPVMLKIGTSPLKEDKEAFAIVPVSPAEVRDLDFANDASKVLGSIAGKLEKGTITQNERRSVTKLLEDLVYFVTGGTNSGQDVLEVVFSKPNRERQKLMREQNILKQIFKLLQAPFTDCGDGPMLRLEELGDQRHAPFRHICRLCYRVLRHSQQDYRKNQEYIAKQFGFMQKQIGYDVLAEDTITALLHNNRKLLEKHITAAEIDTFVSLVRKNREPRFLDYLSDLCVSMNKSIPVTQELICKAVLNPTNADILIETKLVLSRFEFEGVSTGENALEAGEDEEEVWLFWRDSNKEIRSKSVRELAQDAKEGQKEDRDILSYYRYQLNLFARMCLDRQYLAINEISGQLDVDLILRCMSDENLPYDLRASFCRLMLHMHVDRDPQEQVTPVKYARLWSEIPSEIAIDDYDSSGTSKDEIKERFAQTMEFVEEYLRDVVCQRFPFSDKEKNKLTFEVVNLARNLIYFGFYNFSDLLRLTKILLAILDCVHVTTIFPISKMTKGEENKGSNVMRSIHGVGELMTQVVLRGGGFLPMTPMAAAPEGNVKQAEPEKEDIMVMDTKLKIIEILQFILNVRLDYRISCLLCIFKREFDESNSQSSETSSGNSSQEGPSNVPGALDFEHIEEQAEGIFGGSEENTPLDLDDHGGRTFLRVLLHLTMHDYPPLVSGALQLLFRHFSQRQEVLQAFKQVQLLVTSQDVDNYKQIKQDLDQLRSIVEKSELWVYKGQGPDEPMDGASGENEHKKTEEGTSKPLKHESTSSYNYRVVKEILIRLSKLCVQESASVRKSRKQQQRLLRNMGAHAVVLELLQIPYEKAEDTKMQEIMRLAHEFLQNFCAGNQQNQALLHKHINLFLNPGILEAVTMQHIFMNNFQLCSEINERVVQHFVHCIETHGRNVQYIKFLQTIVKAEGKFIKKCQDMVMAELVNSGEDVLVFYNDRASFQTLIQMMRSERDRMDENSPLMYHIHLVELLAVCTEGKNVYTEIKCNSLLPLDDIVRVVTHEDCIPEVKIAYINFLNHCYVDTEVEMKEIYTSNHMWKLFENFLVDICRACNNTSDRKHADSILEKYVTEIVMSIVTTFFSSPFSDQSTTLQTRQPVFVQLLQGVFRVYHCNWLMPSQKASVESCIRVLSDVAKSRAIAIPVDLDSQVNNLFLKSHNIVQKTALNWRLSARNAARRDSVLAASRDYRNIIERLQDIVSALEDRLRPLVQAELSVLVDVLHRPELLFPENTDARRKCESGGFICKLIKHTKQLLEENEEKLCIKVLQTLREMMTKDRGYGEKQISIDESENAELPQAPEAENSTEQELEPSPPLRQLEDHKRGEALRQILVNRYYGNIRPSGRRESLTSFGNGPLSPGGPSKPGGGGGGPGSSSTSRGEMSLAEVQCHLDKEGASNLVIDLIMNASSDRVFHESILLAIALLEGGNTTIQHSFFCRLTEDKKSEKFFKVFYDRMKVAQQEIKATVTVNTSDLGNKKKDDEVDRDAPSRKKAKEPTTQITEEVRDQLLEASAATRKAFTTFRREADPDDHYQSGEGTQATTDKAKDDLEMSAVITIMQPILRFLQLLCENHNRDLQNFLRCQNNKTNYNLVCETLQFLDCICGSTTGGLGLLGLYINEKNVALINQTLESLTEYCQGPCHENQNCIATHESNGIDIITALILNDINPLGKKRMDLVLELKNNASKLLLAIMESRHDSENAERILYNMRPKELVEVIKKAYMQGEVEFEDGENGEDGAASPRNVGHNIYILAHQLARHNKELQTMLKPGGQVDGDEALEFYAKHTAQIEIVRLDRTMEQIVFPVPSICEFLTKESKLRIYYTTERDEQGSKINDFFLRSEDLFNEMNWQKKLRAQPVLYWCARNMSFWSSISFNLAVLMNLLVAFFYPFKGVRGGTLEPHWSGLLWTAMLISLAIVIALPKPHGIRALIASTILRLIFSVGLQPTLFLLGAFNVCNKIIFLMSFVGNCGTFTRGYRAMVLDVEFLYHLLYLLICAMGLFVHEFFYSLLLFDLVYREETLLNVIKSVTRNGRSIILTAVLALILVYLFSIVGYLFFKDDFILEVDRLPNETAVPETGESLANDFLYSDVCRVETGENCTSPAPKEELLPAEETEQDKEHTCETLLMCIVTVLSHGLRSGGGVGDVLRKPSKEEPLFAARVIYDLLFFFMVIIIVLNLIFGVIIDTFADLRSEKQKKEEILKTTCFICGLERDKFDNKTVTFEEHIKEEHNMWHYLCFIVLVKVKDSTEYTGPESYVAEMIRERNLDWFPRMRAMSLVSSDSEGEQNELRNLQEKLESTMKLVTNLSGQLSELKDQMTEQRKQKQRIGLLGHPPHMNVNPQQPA
UniProt P70227: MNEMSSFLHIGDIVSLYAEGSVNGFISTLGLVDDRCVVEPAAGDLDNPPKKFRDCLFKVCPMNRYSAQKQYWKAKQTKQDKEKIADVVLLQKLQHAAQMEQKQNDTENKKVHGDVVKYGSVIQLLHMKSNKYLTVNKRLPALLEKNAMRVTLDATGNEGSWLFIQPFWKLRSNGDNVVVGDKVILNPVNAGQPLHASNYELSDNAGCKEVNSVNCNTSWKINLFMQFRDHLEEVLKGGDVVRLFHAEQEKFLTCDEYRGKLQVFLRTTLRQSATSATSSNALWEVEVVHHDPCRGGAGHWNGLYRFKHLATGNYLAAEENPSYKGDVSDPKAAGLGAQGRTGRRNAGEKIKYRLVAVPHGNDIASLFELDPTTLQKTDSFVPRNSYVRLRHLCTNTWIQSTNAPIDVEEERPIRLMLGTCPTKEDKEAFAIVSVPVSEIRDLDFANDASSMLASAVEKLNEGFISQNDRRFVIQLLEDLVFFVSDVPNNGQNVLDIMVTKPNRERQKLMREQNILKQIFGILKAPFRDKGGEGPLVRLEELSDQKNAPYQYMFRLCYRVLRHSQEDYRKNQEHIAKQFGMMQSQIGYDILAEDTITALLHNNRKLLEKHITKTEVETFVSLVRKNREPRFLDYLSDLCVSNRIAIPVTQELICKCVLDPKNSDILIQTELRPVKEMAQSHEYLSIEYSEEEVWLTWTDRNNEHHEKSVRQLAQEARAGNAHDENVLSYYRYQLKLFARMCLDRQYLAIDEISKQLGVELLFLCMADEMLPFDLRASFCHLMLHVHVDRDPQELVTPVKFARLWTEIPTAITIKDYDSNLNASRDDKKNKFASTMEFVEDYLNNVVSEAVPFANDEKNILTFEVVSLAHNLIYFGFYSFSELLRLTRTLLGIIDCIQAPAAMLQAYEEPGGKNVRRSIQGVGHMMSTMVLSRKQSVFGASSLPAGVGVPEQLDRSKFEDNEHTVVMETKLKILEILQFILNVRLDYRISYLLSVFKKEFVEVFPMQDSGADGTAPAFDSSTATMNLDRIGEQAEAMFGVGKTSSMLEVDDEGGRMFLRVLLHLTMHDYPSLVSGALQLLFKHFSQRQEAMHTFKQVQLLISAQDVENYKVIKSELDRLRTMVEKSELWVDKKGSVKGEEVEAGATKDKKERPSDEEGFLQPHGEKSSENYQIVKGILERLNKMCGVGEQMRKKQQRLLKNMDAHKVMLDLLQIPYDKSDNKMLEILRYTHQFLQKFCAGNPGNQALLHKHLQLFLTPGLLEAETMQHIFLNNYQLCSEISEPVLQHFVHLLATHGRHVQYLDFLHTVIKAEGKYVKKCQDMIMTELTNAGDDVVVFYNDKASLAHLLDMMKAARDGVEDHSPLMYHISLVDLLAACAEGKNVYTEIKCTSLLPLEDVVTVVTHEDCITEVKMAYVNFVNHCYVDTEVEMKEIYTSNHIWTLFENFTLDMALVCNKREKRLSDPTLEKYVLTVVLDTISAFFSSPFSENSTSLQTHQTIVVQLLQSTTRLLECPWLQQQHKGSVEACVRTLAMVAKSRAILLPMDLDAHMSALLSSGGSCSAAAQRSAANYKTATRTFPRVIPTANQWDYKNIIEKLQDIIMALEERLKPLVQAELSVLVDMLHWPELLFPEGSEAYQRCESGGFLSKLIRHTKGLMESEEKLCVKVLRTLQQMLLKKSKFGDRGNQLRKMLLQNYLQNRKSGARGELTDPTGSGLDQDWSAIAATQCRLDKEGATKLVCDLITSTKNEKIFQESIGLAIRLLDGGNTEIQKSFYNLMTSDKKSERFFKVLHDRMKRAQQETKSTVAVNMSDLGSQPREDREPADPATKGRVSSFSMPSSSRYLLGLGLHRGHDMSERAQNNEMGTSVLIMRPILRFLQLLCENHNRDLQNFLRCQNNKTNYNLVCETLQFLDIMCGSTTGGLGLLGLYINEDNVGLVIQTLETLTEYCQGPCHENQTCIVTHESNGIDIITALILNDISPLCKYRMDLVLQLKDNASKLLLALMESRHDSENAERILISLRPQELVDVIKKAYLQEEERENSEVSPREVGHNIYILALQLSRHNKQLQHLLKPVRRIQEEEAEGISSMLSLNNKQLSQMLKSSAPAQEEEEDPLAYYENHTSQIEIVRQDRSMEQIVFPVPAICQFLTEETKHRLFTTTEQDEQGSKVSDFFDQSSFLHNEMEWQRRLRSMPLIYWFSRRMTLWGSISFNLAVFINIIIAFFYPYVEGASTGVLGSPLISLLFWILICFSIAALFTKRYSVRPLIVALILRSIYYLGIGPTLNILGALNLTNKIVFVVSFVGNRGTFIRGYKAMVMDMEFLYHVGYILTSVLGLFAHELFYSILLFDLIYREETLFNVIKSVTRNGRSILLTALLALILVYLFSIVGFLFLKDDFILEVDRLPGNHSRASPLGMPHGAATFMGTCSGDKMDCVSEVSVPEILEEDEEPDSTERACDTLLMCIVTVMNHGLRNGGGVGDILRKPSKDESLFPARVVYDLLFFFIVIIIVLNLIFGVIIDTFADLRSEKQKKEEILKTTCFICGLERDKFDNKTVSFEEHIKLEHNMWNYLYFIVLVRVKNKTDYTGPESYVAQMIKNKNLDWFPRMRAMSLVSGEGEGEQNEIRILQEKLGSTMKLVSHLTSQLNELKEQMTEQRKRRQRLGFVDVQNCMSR
UniProt P70302, residues 23-685: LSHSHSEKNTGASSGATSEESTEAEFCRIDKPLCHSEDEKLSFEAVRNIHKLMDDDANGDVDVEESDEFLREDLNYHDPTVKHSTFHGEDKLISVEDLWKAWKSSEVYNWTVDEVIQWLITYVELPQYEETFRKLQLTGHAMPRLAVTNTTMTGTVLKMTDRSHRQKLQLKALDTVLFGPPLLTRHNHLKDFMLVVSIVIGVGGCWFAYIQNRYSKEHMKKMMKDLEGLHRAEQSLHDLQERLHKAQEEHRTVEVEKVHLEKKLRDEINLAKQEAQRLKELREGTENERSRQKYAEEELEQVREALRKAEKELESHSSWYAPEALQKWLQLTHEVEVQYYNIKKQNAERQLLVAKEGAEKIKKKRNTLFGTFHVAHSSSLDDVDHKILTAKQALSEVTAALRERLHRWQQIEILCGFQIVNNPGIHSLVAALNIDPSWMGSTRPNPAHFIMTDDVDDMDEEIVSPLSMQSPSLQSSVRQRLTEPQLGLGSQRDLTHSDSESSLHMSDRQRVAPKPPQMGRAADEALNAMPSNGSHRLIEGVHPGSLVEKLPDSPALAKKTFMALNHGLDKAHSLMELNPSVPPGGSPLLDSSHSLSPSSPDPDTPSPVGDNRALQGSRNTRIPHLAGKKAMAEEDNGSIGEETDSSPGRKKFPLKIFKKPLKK

In experiment [1] the target is T1, iRhom2-3XHA stably expressed in iRhom1/2 DKO MEFs (mouse (from the plasmid name pM6P.Blast-miR2)) (UniProt Q80WQ6).
T1 sequence: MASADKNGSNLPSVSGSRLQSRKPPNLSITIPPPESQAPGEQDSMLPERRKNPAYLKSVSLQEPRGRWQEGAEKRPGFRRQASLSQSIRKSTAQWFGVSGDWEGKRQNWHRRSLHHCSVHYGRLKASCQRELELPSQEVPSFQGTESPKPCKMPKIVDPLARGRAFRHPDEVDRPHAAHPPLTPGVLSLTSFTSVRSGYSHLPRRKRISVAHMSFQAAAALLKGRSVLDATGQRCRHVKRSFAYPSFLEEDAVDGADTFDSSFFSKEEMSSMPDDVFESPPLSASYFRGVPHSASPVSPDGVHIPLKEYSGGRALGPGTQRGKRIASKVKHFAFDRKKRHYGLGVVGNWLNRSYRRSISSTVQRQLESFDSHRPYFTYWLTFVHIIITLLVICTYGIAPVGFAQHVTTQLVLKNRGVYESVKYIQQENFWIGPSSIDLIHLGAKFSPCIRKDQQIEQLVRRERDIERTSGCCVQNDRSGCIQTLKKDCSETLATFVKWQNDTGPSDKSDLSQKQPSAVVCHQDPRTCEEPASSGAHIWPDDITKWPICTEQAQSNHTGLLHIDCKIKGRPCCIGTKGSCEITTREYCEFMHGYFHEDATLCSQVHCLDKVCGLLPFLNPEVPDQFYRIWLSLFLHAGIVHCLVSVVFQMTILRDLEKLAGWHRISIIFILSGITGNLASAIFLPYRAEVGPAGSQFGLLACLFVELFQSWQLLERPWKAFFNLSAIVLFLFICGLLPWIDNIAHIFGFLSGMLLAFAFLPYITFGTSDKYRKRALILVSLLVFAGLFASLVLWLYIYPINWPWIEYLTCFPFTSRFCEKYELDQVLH
The experiment can be described thus: co-IP; iRhom1/2 DKO MEFs stably expressing HA-tagged iRhom2 forms; endogenous partners; lysis in 1% Triton X-100, 200 mM NaCl, 50 mM Tris-HCl pH 7.4; anti-HA magnetic beads, 4 °C overnight; washes with 500 mM NaCl; immunoblot; in Fig. 6b after 18 h with control or BIRD-2 peptides (10 or 20 µM).

Experiment [2] has as its target T2, HA-iRhom2 (N-terminally HA-tagged, tetracycline-inducible, in iRhom1/2 DKO HEK293T cells) (UniProt Q80WQ6).
T2 sequence: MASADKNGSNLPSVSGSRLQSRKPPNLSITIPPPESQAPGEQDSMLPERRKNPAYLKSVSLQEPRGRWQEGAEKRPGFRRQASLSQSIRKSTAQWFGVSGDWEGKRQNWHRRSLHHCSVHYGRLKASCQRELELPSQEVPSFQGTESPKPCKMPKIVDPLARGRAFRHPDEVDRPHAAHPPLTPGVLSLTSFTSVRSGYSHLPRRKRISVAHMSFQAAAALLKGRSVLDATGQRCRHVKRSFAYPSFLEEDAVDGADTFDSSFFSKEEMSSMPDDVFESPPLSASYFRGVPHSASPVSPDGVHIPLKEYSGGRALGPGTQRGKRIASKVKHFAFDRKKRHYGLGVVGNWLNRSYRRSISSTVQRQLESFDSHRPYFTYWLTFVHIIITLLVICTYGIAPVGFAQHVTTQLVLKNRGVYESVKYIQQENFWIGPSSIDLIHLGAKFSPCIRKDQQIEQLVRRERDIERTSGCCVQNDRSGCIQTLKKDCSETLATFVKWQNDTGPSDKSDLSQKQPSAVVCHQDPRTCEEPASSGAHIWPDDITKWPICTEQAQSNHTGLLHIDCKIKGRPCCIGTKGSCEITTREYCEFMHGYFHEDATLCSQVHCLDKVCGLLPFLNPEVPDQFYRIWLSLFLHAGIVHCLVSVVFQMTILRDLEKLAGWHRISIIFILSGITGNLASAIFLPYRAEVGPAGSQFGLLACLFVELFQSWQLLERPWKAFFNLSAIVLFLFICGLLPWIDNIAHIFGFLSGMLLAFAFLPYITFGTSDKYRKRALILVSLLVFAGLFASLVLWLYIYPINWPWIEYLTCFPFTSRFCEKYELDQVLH
The experiment is described as follows: proximity ligation; iRhom1/2 DKO HEK293T cells with tetracycline-inducible HA-iRhom2, 250 ng/ml doxycycline 24 h, fixed and permeabilised; antibodies to HA and to endogenous IP3R1 or IP3R3; Duolink PLA; dots per cell, induced against uninduced.

The target of a further experiment is FLAG-IP3R1 (UniProt P11881). The experiment is described as follows: co-IP; HEK293T transiently co-transfected with two tagged proteins for 36-48 h; lysis in 1% Triton X-100, 200 mM NaCl, 50 mM Tris-HCl pH 7.4; anti-HA or anti-FLAG M2 magnetic beads, 4 °C overnight; washes with 500 mM NaCl; immunoblot; in Fig. 4f with tunicamycin (2 µg/ml) for the last 18 h. (A western blot detects proteins with antibodies after separation by electrophoresis.)

Experiment [3] deals with IP3R3 (tagged, co-IP of Supplementary Fig. 4a) (UniProt Q63269). The experiment can be described thus: co-IP; cells expressing tagged iRhom and IP3R3 (Supplementary Fig. 4a); cells and tags not shown.

No constants are given. Whether binding was seen depends on the method and setting. Binding seen in cells or lysates may run through a third protein. Some binding calls cover weakened binding; strength is not graded here. For some of these results: Sequences can lack the tags named with a protein.

On to “endogenous IP3R1 of MEFs (from UniProt P11881 1-2749) (receptor)”, for which the binding entry in experiment [1] was “binds”.
In the case of “endogenous IP3R3 of HEK293T cells (from UniProt Q14573 1-2671) (receptor)”, the binding entry in experiment [2] is reported as “binds”.
For “endogenous IP3R3 of MEFs (from UniProt P70227 1-2670) (receptor)”, the binding entry in experiment [1] is given as “binds”.
Still for that read-out and setting: as for “endogenous SERCA2 of MEFs (from UniProt O55143 1-1044)”, the entry is “no binding”; as for “endogenous STIM1 of MEFs (from UniProt P70302 23-685)”, “no binding”.

B1: iRhom2-HA (wild type, transiently expressed in HEK293T cells) (protein, UniProt Q80WQ6 1-827)
chain: MASADKNGSNLPSVSGSRLQSRKPPNLSITIPPPESQAPGEQDSMLPERRKNPAYLKSVSLQEPRGRWQEGAEKRPGFRRQASLSQSIRKSTAQWFGVSGDWEGKRQNWHRRSLHHCSVHYGRLKASCQRELELPSQEVPSFQGTESPKPCKMPKIVDPLARGRAFRHPDEVDRPHAAHPPLTPGVLSLTSFTSVRSGYSHLPRRKRISVAHMSFQAAAALLKGRSVLDATGQRCRHVKRSFAYPSFLEEDAVDGADTFDSSFFSKEEMSSMPDDVFESPPLSASYFRGVPHSASPVSPDGVHIPLKEYSGGRALGPGTQRGKRIASKVKHFAFDRKKRHYGLGVVGNWLNRSYRRSISSTVQRQLESFDSHRPYFTYWLTFVHIIITLLVICTYGIAPVGFAQHVTTQLVLKNRGVYESVKYIQQENFWIGPSSIDLIHLGAKFSPCIRKDQQIEQLVRRERDIERTSGCCVQNDRSGCIQTLKKDCSETLATFVKWQNDTGPSDKSDLSQKQPSAVVCHQDPRTCEEPASSGAHIWPDDITKWPICTEQAQSNHTGLLHIDCKIKGRPCCIGTKGSCEITTREYCEFMHGYFHEDATLCSQVHCLDKVCGLLPFLNPEVPDQFYRIWLSLFLHAGIVHCLVSVVFQMTILRDLEKLAGWHRISIIFILSGITGNLASAIFLPYRAEVGPAGSQFGLLACLFVELFQSWQLLERPWKAFFNLSAIVLFLFICGLLPWIDNIAHIFGFLSGMLLAFAFLPYITFGTSDKYRKRALILVSLLVFAGLFASLVLWLYIYPINWPWIEYLTCFPFTSRFCEKYELDQVLH
As to B1, in the experiment with FLAG-IP3R1, the binding result is on record as “binds”.

B2: iRhom1 (tagged, co-IP of Supplementary Fig. 4a) (protein, UniProt Q6PIX5 1-856)
chain: MSEARRDSTSSLQRKKPPWLKLDIPAAVPPAAEEPSFLQPLRRQAFLRSVSMPAETARVPSPHHEPRRLVLQRQTSITQTIRRGTADWFGVSKDSDSTQKWQRKSIRHCSQRYGKLKPQVIRELDLPSQDNVSLTSTETPPPLYVGPCQLGMQKIIDPLARGRAFRMADDTADGLSAPHTPVTPGAASLCSFSSSRSGFNRLPRRRKRESVAKMSFRAAAALVKGRSIRDGTLRRGQRRSFTPASFLEEDMVDFPDELDTSFFAREGVLHEEMSTYPDEVFESPSEAALKDWEKAPDQADLTGGALDRSELERSHLMLPLERGWRKQKEGGPLAPQPKVRLRQEVVSAAGPRRGQRIAVPVRKLFAREKRPYGLGMVGRLTNRTYRKRIDSYVKRQIEDMDDHRPFFTYWLTFVHSLVTILAVCIYGIAPVGFSQHETVDSVLRKRGVYENVKYVQQENFWIGPSSEALIHLGAKFSPCMRQDPQVHSFILAAREREKHSACCVRNDRSGCVQTSKEECSSTLAVWVKWPVHPSAPDLAGNKRQFGSVCHQDPRVCDEPSSEDPHEWPEDITKWPICTKSSAGNHTNHPHMDCVITGRPCCIGTKGRCEITSREYCDFMRGYFHEEATLCSQVHCMDDVCGLLPFLNPEVPDQFYRLWLSLFLHAGILHCLVSVCFQMTVLRDLEKLAGWHRIAIIYLLSGITGNLASAIFLPYRAEVGPAGSQFGILACLFVELFQSWQILARPWRAFFKLLAVVLFLFAFGLLPWIDNFAHISGFVSGLFLSFAFLPYISFGKFDLYRKRCQIIIFQVVFLGLLAGLVVLFYFYPVRCEWCEFLTCIPFTDKFCEKYELDAQLH
On to B2, for which the binding result in experiment [3] was “binds”.
